Results published in PubChem BioAssay AID757 (NMMLSC, 2007).
Among all 190,000 compounds or so, about 520 (0.27%) were called active. Inconclusive results, whose numbers are uncertain, are shown with a selection of clear calls.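 How the source made its calls: active means GTP binding activity at least 20 points away from the 100% control level, either lower or higher; inconclusive means compound flagged as likely green fluorescent, judged across all proteins; inactive means the rest.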

biological target: Ras-related C3 botulinum toxin substrate 1 (Homo sapiens) (UniProt P63000); experiment: wildtype Rac1 GTP binding modulators, primary screen, biochemical, GST-Rac1 beads, flow cytometry, multiplex (AID 757); conditions: fluorescent GTP binding, at 10 µM, actives lie on both sides, 0 = cold GTP competed, 100 = untreated

SMILES | GTP binding activity (% of control)
C/C(=N\Nc1nc2c(s1)CCCC2)c1ccccc1 | inconclusive: 106%
O=C(NC1CCCC1)C(c1ccco1)N(Cc1ccccc1)C(=O)c1csnn1 (configuration not stated) | inconclusive: 89%
CC[C@H](C)[C@H](NC(N)=O)C(=O)NCCc1ccc(Cl)cc1 | inconclusive: 92%
CC(=O)C1C(c2ccccc2)c2c(n[nH]c2C)CC1(C)O (configuration not stated) | inconclusive: 104%
CCCN=Cc1ccc(O)cc1 | inactive: 94%
COc1cc(/C=N/NC(=O)c2sc(N)c(C#N)c2C)cc(Br)c1O | inconclusive: 83%
Cc1ccc(OCC(=O)Nc2cc(C(=O)O)cc(C(=O)O)c2)cc1C | inactive: 101%
c1ccc(CNCC2COc3ccccc3O2)cc1 (configuration not stated) | inconclusive: 104%
COc1ccccc1Nc1nc(C)cs1 | inconclusive: 108%
N=c1oc2ccc3ccccc3c2cc1-c1nc(-c2ccccc2)cs1 | active: 79%
O=C(NC(=S)Nc1cccnc1Cl)c1ccco1 | inconclusive: 98%
Cc1ccc(-n2nc3cc(Cl)c(NC(=O)c4ccco4)cc3n2)cc1 | inconclusive: 107%
O=[N+]([O-])c1cc(Br)c(O)c(C=Nc2ccc(N3CCOCC3)cc2)c1 | inactive: 84%
COc1ccccc1Nc1nnc(SCC(=O)NC(=O)Nc2ccc3c(c2)OCCO3)s1 | inconclusive: 102%
CCS(=O)(=O)N1CCN(c2ccc([N+](=O)[O-])c(NCc3cccnc3)c2)CC1 | inconclusive: 99%
O=C1Nc2ccccc2SC(c2ccccc2)C1O (configuration not stated) | inconclusive: 105%
COc1cc(/C=C2\C(=O)ON=C2c2ccccc2)cc(Cl)c1O | inconclusive: 89%
Nc1[nH]n2c(=O)cc(-c3ccccc3)nc2c1N=Nc1ccccc1 | inactive: 98%
CC(C(=O)Nc1ccccc1-c1ccccc1)N1CCCCC1 (configuration not stated) | inconclusive: 105%
COc1cc(-c2nnc(SCC(=O)N(C)C3CCS(=O)(=O)C3)o2)cc(OC)c1OC (configuration not stated) | inconclusive: 95%
Cc1ccc(C(=O)NC(=S)NCc2ccco2)cc1 | inconclusive: 92%
COc1cc2c(cc1NC(=O)COC(=O)Cn1cnc3ccccc31)oc1ccccc12 | inconclusive: 90%
O=C(NCCCn1ccnc1)c1noc2c1CCCC2 | inconclusive: 107%
COc1cc(/C=N\NC(=O)CNC(=O)C2COc3ccccc3O2)ccc1O (configuration not stated) | inconclusive: 218%
COc1ccc(C2N(c3ccc(F)cc3)C(=O)C3CCCN32)cc1 (configuration not stated) | inconclusive: 112%
N#CC(Sc1ccccn1)c1ccc(Cl)cc1Cl (configuration not stated) | inconclusive: 94%
CCN(C(=O)c1cn(CC)c(=O)c2cc(OC)c(OC)cc12)c1ccccc1C | inconclusive: 107%
